Results from publication PMC4336329 (PLoS ONE, 2015).
About 2,200 (0.71%) of roughly 310,000 compounds showed an effect of 50% or more. Effects have a minus sign here. The list shows a part of the results.

Target: human ether-à-go-go-related gene (hERG) potassium channel (human, UniProt Q12809)
Assay: primary screen, population patch clamp on CHO cells stably expressing hERG

human ether-à-go-go-related gene (hERG) potassium channel, sequence (Q12809 whole entry, looked up): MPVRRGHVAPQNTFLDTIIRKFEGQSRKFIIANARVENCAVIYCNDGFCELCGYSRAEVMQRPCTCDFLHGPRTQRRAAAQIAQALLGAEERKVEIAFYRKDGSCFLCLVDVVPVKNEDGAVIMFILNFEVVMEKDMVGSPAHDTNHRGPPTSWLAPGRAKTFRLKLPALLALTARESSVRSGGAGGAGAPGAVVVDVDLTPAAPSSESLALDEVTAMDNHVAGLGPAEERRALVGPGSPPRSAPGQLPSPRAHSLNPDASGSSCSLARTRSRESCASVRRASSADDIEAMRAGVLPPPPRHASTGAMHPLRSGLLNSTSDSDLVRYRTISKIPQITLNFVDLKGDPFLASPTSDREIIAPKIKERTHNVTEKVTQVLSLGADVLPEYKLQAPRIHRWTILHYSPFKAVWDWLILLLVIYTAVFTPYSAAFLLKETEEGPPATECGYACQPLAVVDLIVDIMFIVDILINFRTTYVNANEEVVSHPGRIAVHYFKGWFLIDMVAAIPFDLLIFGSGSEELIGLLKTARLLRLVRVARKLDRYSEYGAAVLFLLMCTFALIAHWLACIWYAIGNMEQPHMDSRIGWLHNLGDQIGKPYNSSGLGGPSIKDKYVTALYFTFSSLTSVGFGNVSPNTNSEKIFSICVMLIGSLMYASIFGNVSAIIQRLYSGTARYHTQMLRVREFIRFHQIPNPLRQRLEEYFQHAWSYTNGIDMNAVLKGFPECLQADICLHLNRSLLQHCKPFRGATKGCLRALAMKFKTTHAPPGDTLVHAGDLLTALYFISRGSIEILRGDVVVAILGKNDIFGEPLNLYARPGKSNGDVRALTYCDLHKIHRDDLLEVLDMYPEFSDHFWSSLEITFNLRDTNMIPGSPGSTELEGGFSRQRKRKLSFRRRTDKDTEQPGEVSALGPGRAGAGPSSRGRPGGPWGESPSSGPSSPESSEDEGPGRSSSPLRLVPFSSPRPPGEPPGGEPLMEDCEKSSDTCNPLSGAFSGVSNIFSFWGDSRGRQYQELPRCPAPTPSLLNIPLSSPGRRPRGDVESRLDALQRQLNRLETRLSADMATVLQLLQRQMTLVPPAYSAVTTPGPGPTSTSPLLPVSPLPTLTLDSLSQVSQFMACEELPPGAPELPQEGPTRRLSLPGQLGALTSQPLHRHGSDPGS

| Compound | hERG current change (%, negative = inhibition) at 1uM [%] |
| --- | --- |
| Cn1cccc1Cc1nnc(SCC(=O)NCC2CCCO2)n1-c1ccc(F)cc1 (stereo not shown) | 7.39 |
| COc1ccc(N(C(=O)Cn2nnc(-c3ccc(F)cc3)n2)C(C)C(=O)NC2CCCC2)cc1OC (stereo not shown) | 9.57 |
| Cc1[nH][nH]c(=O)c1C(c1ccc(O)c([N+](=O)[O-])c1)c1c(C)[nH][nH]c1=O | 16.9 |
| O=C(/C=C/c1ccccc1Br)c1ccc2c(c1)OCO2 | -2.25 |
| CCOC(=O)c1sc(NC(=O)c2ccccc2)cc1C | 9.19 |
| CC1CCCCC1NC(=O)NC(=O)COC(=O)C1=NN(c2ccccc2)C(=O)CC1 (stereo not shown) | 10.5 |
| CC1(C)Cc2nc3sc4c(=O)n(CC(=O)NCc5ccco5)cnc4c3cc2CO1 | 6.61 |
| Cc1ccc(CC(=O)c2ccc(Cl)cc2)cc1 | 8.47 |
| CCn1nc([N+](=O)[O-])c(C(C#N)c2nc3ccccc3n2C)c(Cl)c1=O (stereo not shown) | 11 |
| Cc1cccc(NC(=O)CSCc2nc3c(nnn3Cc3ccc(F)cc3)c(=O)[nH]2)c1C | 8.63 |
| COc1ccc(Oc2nccc(-c3ccc(Cl)cc3)n2)cc1 | 10.8 |
| CCOC(=O)C(NC(C)=O)(Nc1ccc(S(=O)(=O)Nc2ccncn2)cc1)C(F)(F)F (stereo not shown) | 11.4 |
| Cn1c(=O)oc2cc(S(=O)(=O)N3CCC(C(=O)NCc4ccccc4)CC3)ccc21 | 4.58 |
| Cc1cc2ccccc2n1CCNC(=O)c1ccc(Br)o1 | 4.5 |
| Cc1ccc(N(C(=O)CNC(=O)c2ccco2)C(C(=O)NC2CCCC2)c2cccnc2)cc1C (stereo not shown) | 8.33 |
| CC(NC(=O)Cn1ccsc1=N)C12CC3CC(CC(C3)C1)C2.Cl (stereo not shown) | 3.15 |
| CCOc1ccccc1CN1C2CCC1CC(c1ccc(C)cc1)C2 (stereo not shown) | -28.6 |
| CC1CCC2(CC1)NC(=O)N(CC(=O)Nc1ccc3c(c1)OCCO3)C2=O (stereo not shown) | 17 |
| CCc1cccc(CC)c1NC(=O)c1ccccc1 | 12.7 |
| Cc1cccc(C)c1NC(=O)N1CC=C(n2c(=O)[nH]c3ccccc32)CC1 | 1.88 |
| O=C(NCCc1cn2ccccc2n1)c1cc(COc2ccc3ncccc3c2)on1 | 7.59 |
| S=c1[nH]ccn1-c1c(Cl)cccc1Cl | 13.5 |

| Compound | hERG current change (%, negative = inhibition) at 1uM [%] |
| --- | --- |
| Cc1ccc(C)c(NC(=O)CN(C)C(=O)c2ccc(Cl)nc2)c1 | 3.4 |
| O=C(CSC1=NNC(c2ccccn2)S1)Nc1cccc(Cl)c1 (stereo not shown) | 15 |
| COc1cccc(NC(=O)CN(C)C(=O)c2ccccc2OCc2c(C)noc2C)c1 | 8.16 |
| CC(C)(C)c1ccc(OCCCCCCN2CCNCC2)cc1 | 12.1 |
| O=S(=O)(c1ccc(Oc2ccc(Br)cc2F)nc1)N1CCCCC1 | -1.45 |
| CCOc1ccc(Br)cc1S(=O)(=O)N1CCC(C(=O)O)CC1 | 6.21 |
| Cc1cc(=O)oc2c(CN(CC(C)C)CC(C)C)c(O)ccc12 | 9.07 |
| CCOCCn1c(N2CCCC2)nc2c1c(=O)n(C)c(=O)n2C | 6.71 |
| C=CCN=C1NN=C(c2cc(C)n(CC=C)c2C)CS1 | 10.8 |
| O=C(NNC(=S)Nc1ccc(F)c(Cl)c1)C1CC1 | 14.1 |
| c1ccc2c(CSc3ncnc4nc[nH]c34)cccc2c1 | 13.6 |
| Cc1nc(N)sc1N=Nc1ccc(Br)cc1 | 16.2 |
| COc1ccc(-c2nnc(SCc3ccccc3)n2N)cc1 | 0.891 |
| CC(C)OC(=O)c1ccc(COC(=O)c2cnccn2)cc1 | 7.89 |
| O=[N+]([O-])c1ccc(/C=N/N2CCN(c3ccncc3S(=O)(=O)N3CCCCC3)CC2)cc1 | 1.96 |
| CC1SC(c2ccc(F)cc2)NC1=O (stereo not shown) | 15.1 |
| Cc1c(N=Cc2ccc(Br)s2)cccc1[N+](=O)[O-] | -6.3 |
| O=C(Nc1cc(C(F)(F)F)ccc1N1CCCC1)c1cccnc1 | -5.24 |
| Cc1[nH]c(C)c2c(=O)n(Cc3ccc(Cl)cc3)ncc12 | 8.19 |
| NC1=NC(c2cn[nH]c2-c2ccc(F)cc2)n2c(nc3ccccc32)N1 (stereo not shown) | 17.9 |
| O=c1[nH][nH]c(=S)n1C1CCCCC1 | 10.4 |
| O=C(O)Cn1c(=O)c2c(c3ccccc31)CCC2 | 11.5 |

| Compound | hERG current change (%, negative = inhibition) at 1uM [%] |
| --- | --- |
| COc1cccc(-n2nnc(S(=O)(=O)c3ccc(C)cc3)c2N)c1 | 11.4 |
| COc1ccccc1C(=O)NCCSCc1c(F)cccc1Cl | 10.4 |
| N#CC1(NC(=O)COC(=O)c2ccccc2[N+](=O)[O-])CCCCC1 | 2.48 |
| CCCCOC(=O)Nc1ccc(C(=O)OCCC)cc1 | -6.68 |
| COc1ccc(/C(O)=C2/C(=O)C(=O)N(CCCN3CCOCC3)C2c2ccc(C(C)C)cc2)cc1 (stereo not shown) | 16.7 |
| O=C(O)C(=O)O.Oc1ccccc1CN1CCC(C(O)(c2ccccc2)c2ccccc2)CC1 | -1.01 |
| CCN(CC)CCCNC(=O)CCC(=O)Nc1ccc2nc(N3CCCCC3)cc(C)c2c1 | -0.134 |
| O=C(CNc1ccccc1Cl)N/N=C1\CCCc2ccccc21 | 19.4 |
| O=S(=O)(Cc1ccccc1)Nc1cccc(F)c1 | 13.4 |
| Cc1nnc(N/N=C/c2ccccc2O)n1N | -1.76 |
| CCCn1c(SCC(=O)Nc2cccc(S(=O)(=O)N3CCCC3)c2)n[nH]c1=O | 11.4 |
| CC(C)(C)n1nc2c(c1NC(=O)Cc1ccc(F)cc1)CS(=O)(=O)C2 | 6.24 |
| S=C(NCCc1ccccc1)N1CCn2cccc2C1c1cccnc1 (stereo not shown) | 3.03 |
| Cc1ccc(-c2noc(CCC(=O)N3CCN(c4cccc(C(F)(F)F)c4)CC3)n2)cc1 | 11.4 |
| Cc1nc2ccccc2n1CC(=O)OCC(=O)NCc1ccccc1 | 12.1 |
| CC(NC(=O)COC(=O)c1cccs1)c1ccccc1 (stereo not shown) | 17 |
| C/C(O)=C(/N=O)C(=O)Nc1ccccc1 | 13.4 |
| COCCNC(=O)Cn1nc(C(F)(F)F)c(Br)c1C | 4.13 |
| COC(=O)CNC(=O)Cn1cnc2sc(C)c(S(=O)(=O)N3CCN(c4ccccc4OC)CC3)c2c1=O | 9.85 |
| O=C(c1cc2cc(F)ccc2[nH]1)N1CCN(Cc2ccc3c(c2)OCO3)CC1 | -0.23 |
| COc1ccccc1CNC(=O)C(=O)NCCC1CCCCN1S(=O)(=O)c1ccccc1 (stereo not shown) | 9.75 |
| O=C(Nc1cccnc1)c1cccc(NC(=O)c2ccco2)c1 | 5.86 |

| Compound | hERG current change (%, negative = inhibition) at 1uM [%] |
| --- | --- |
| O=S(=O)(c1ccc2ccccc2c1)N1CCOCC1 | 5.94 |
| Cc1oc(=O)c(NC(=O)c2cccc(Cl)c2)cc1C(=O)c1ccccc1 | 5.39 |
| O=C(Cn1nnc(-c2ccc3c(c2)OCO3)n1)NCc1ccco1 | 5.44 |
| CC1CCCCN1CC(=O)c1c(N)n(Cc2ccccc2)c(=O)n(C)c1=O (stereo not shown) | 4.41 |
| CC(=O)Nc1ccc(NC(=O)C2CCCN(c3ncccn3)C2)cc1 (stereo not shown) | -0.454 |
| CC(C)(C)NC(=O)C1CCN(S(=O)(=O)c2cccc3nsnc23)CC1 | 13.5 |
| N=c1c2c(-c3ccccc3)c(-c3ccccc3)oc2ncn1Cc1ccco1 | 9.94 |
| CCN(Cc1ccccc1)C(=O)COc1cc(=O)n(CC)c2ccccc12 | 8.35 |
| C/C(=N\NC(=O)C(=O)Nc1ccc(C)c(Cl)c1)c1ccncc1 | -8.26 |
| Cc1cc(C)n(Cc2ccc(Cl)cc2Cl)c(=O)c1S(=O)(=O)c1ccccc1 | 14.2 |
| Cc1[nH]c(=O)c(C#N)c(C)c1CCC(=O)NCc1ccc(Cl)cc1 | 13.2 |
| C/C(=C\c1ccc(N(C)C)cc1)[N+](=O)[O-] | 10.6 |
| Cc1ccccc1CSc1nc2[nH]ncc2c(=O)[nH]1 | 16.3 |
| CCN(CC)S(=O)(=O)c1ccc(OCC(=O)NC(=O)c2ccccc2OC)c([N+](=O)[O-])c1 | 9.96 |
| CCOC(=O)c1ccccc1NC(=O)COC(=O)c1ccccc1C(=O)N(C)c1ccccc1 | -2.8 |
| CC(C)[C@H](NC(=O)C1CCN(C(=O)[C@@H]2CCCN2)CC1)C(=O)NCc1ccc(F)cc1 | 16.8 |
| CC1(c2ccc3ccccc3c2)NC(=O)N(CC(=O)N2CCN(Cc3ccccc3)CC2)C1=O (stereo not shown) | 8.98 |
| COc1ccc(-[n+]2c(C)cc(/C=C3\Sc4ccccc4N3C)cc2C)cc1.[I-] | 3.65 |
| C#CCOCCOCCOCCNc1nc(N2CCN(C(=O)C([C@@H](C)CC)n3cc(C(N)CO)nn3)CC2)nc(N2CCN(C(=O)C([C@@H](C)CC)n3cc(C(N)COC(=O)C(F)(F)F)nn3)CC2)n1.Cl (stereo partly shown) | 19.6 |
| COc1ccccc1CNC(=O)C(=O)NCC1OCCN1S(=O)(=O)c1ccc2c(c1)OCCO2 (stereo not shown) | 13 |
| CC(=O)C1=C(C)N(CC2CC2)C(=O)N[C@H]1c1cccs1 | 8.7 |
| CN(C(=O)CC(NC(=O)c1ccccc1Cl)c1ccccc1)c1ccccc1 (stereo not shown) | -1.53 |
